Reference: the supplement of paper PMC7125110
± gives the standard error. This sample is rich in variants without activity.

B1: glmS ribozyme (parent)
chain: AUAAAAGCGCCAGAACUACAGAAAUGUAGUUGACGAGGAGGAGGUUUAUCGAAUUUUCGGCGGAUGCCUCCAAA

Experiments:
Conditions in all cases: with glucosamine-6-phosphate
glucosamine-6-phosphate [1] = variants of: B1; assay: self-cleavage kobs at 40 uM GlcN6P; higher = faster cleavage; RNA array
Method in brief: (§1)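 Sequenced MiSeq chips were the platform: E. coli RNA polymerase transcribed barcoded ribozyme variants on them in situ, and a hybridised Cy3 probe tracked these at 37 °C. After glucosamine-6-phosphate (40 μM to 10 mM) in HEPES/KCl/Mg(OAc)2 buffer was flowed in, tiles were imaged over ~14 h. Signals normalised to baseline and to non-cleaving reference variants were reduced to per-tile medians and fit to one- or two-exponential decays to obtain kobs. kcat and KM were derived through weighted Michaelis–Menten fits across concentrations.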

glucosamine-6-phosphate [2] = variants of: B1; assay: self-cleavage kobs at 640 uM GlcN6P; higher = faster cleavage; RNA array
Method in brief: as §1

glucosamine-6-phosphate [3] = variants of: B1; assay: self-cleavage kobs at 2500 uM GlcN6P; higher = faster cleavage; RNA array
Method in brief: as §1

glucosamine-6-phosphate [4] = variants of: B1; assay: self-cleavage kobs at 10000 uM GlcN6P; higher = faster cleavage; RNA array
Method in brief: as §1

glucosamine-6-phosphate [5] = variants of: B1; assay: self-cleavage kobs at 160 uM GlcN6P; higher = faster cleavage; RNA array
Method in brief: as §1

## AUAAAAGUGCCAGAACUACAGAAAUGUAGUUGACGAGGAGGGGGUUUAUCGAAUUUUCGGCGUAUGCCUCCAAA [C8U A42G G63U]
glucosamine-6-phosphate [1]
  self-cleavage kobs at 40 uM GlcN6P: < 1e-05 s⁻¹
glucosamine-6-phosphate [2]
  self-cleavage kobs at 640 uM GlcN6P: < 1e-05 s⁻¹
glucosamine-6-phosphate [3]
  self-cleavage kobs at 2500 uM GlcN6P: < 1e-05 s⁻¹
glucosamine-6-phosphate [4]
  self-cleavage kobs at 10000 uM GlcN6P: < 1e-05 s⁻¹

## AUAAAAGUGCCAGAACUACAGAAAUGUAGUUGACGAGGAGGAGGUUUAUCGCAUUUUCGGCGGAUGCCUCCAAA [C8U A52C]
glucosamine-6-phosphate [1]
  self-cleavage kobs at 40 uM GlcN6P: < 1e-05 s⁻¹
glucosamine-6-phosphate [5]
  self-cleavage kobs at 160 uM GlcN6P: < 1e-05 s⁻¹
glucosamine-6-phosphate [3]
  self-cleavage kobs at 2500 uM GlcN6P: < 1e-05 s⁻¹
glucosamine-6-phosphate [4]
  self-cleavage kobs at 10000 uM GlcN6P: < 1e-05 s⁻¹

## AUAAAAGUGCCAGAACUACAGAAAUGUAGUUGACGAGGAGGAGGUUUAUCGAGUUUUCGGCGUAUGCCUCCAAA [C8U A53G G63U]
glucosamine-6-phosphate [1]
  self-cleavage kobs at 40 uM GlcN6P: < 1e-05 s⁻¹
glucosamine-6-phosphate [3]
  self-cleavage kobs at 2500 uM GlcN6P: < 1e-05 s⁻¹

## AUAAAAGUGCUAGAAUUACAGAAAUGUAGUCGACACGGAGGAGGUUUAUCGAAUUUUCCGCGGAUGCCUCCAAA [C8U C11U C16U U31C G35A A36C G59C]
glucosamine-6-phosphate [1]
  self-cleavage kobs at 40 uM GlcN6P: < 1e-05 s⁻¹
glucosamine-6-phosphate [4]
  self-cleavage kobs at 10000 uM GlcN6P: < 1e-05 s⁻¹

## AUAAAAGUGCCAGAAUUACAGAAAUGUAGUUGACGAGGAGGAGGUUUAUGGAAUUUUCGACGGAUUCCUCCAAA [C8U C16U C50G G60A G66U]
glucosamine-6-phosphate [1]
  self-cleavage kobs at 40 uM GlcN6P: 0.000197 ± 6.5e-05 s⁻¹
glucosamine-6-phosphate [5]
  self-cleavage kobs at 160 uM GlcN6P: 9.7e-05 ± 4.4e-05 s⁻¹
glucosamine-6-phosphate [4]
  self-cleavage kobs at 10000 uM GlcN6P: 0.000101 ± 2.7e-05 s⁻¹

## AUAAAAGUGCCAGAACUACAGAAAUGUAGUUGAAGAGGAGGAGGUUUAUCGAAUUUUCGGCGGAUGCCUCCAAA [C8U C34A]
glucosamine-6-phosphate [1]
  self-cleavage kobs at 40 uM GlcN6P: < 1e-05 s⁻¹
glucosamine-6-phosphate [2]
  self-cleavage kobs at 640 uM GlcN6P: < 1e-05 s⁻¹
glucosamine-6-phosphate [5]
  self-cleavage kobs at 160 uM GlcN6P: < 1e-05 s⁻¹
glucosamine-6-phosphate [3]
  self-cleavage kobs at 2500 uM GlcN6P: < 1e-05 s⁻¹
glucosamine-6-phosphate [4]
  self-cleavage kobs at 10000 uM GlcN6P: < 1e-05 s⁻¹

## AUAAAAGUGCCAGAACUACAGAAAUGUAGUUGACGAGGAGGAGGUUUAUAAAAUUUUCGGCGGAUGCCGCCAAA [C8U C50A G51A U69G]
glucosamine-6-phosphate [1]
  self-cleavage kobs at 40 uM GlcN6P: 0.00046 ± 0.00016 s⁻¹

## AUAAAAGUGCCAGAACUACAGAAAUGUAGUUGACGAGGAGGAGGUUUAUCGAAUUUUGGGCGGAUGCCUCCAAA [C8U C58G]
glucosamine-6-phosphate [1]
  self-cleavage kobs at 40 uM GlcN6P: < 1e-05 s⁻¹
glucosamine-6-phosphate [2]
  self-cleavage kobs at 640 uM GlcN6P: < 1e-05 s⁻¹
glucosamine-6-phosphate [5]
  self-cleavage kobs at 160 uM GlcN6P: < 1e-05 s⁻¹
glucosamine-6-phosphate [4]
  self-cleavage kobs at 10000 uM GlcN6P: < 1e-05 s⁻¹

## AUAAAAGUGCCAGAACUACAGAAAUGUAGUUGACGAGGAGGAGGUUUAUCGAAUUUUCGGCGGAUGGCUCCAAA [C8U C67G]
glucosamine-6-phosphate [1]
  self-cleavage kobs at 40 uM GlcN6P: < 1e-05 s⁻¹
glucosamine-6-phosphate [5]
  self-cleavage kobs at 160 uM GlcN6P: < 1e-05 s⁻¹
glucosamine-6-phosphate [4]
  self-cleavage kobs at 10000 uM GlcN6P: < 1e-05 s⁻¹

## AUAAAAGUGCCAUAACUACAGAAAUGUAGUUGACGAGGAGGAGGUUUAUCGAAUUUUCGUCGGAUGCCUCCAAA [C8U G13U G60U]
glucosamine-6-phosphate [1]
  self-cleavage kobs at 40 uM GlcN6P: < 1e-05 s⁻¹
glucosamine-6-phosphate [3]
  self-cleavage kobs at 2500 uM GlcN6P: < 1e-05 s⁻¹

## AUAAAAGUGCCAUAACUACAGAAAUGUAGUUGACGAGGAGGAGGUAUAUAGAAUUUUCAGCGGAUGCGUCCAAA [C8U G13U U46A C50A G59A C68G]
glucosamine-6-phosphate [1]
  self-cleavage kobs at 40 uM GlcN6P: < 1e-05 s⁻¹
glucosamine-6-phosphate [2]
  self-cleavage kobs at 640 uM GlcN6P: < 1e-05 s⁻¹
glucosamine-6-phosphate [5]
  self-cleavage kobs at 160 uM GlcN6P: < 1e-05 s⁻¹
glucosamine-6-phosphate [3]
  self-cleavage kobs at 2500 uM GlcN6P: < 1e-05 s⁻¹

## AUAAAAGUGCCAGAACUACAGAAAUGUACUUGACGAGGAGUAGGUUUAUCGAAUUUUCGGCGGAUGCCUCCAAA [C8U G29C G41U]
glucosamine-6-phosphate [1]
  self-cleavage kobs at 40 uM GlcN6P: < 1e-05 s⁻¹

## AUAAAAGUGCCAGAACUACAGAAAUGUAGUUGACUAGGUGGAUGUUUAUCGAAUUUUCGGCGGAUGCCUCCAAA [C8U G35U A39U G43U]
glucosamine-6-phosphate [1]
  self-cleavage kobs at 40 uM GlcN6P: < 1e-05 s⁻¹
glucosamine-6-phosphate [2]
  self-cleavage kobs at 640 uM GlcN6P: < 1e-05 s⁻¹

## AUAAAAGUGCCAGAACUACAGAAAUGUAGUUGACGACGAGAAGGUUUAUCGAAUUUUCGACGGAUGCCUCCAAA [C8U G37C G41A G60A]
glucosamine-6-phosphate [1]
  self-cleavage kobs at 40 uM GlcN6P: < 1e-05 s⁻¹

## AUAAAAGUGCCAGAACUACAGAAAUGUAGUUGACGAGGAGGAGUUUUAUCGAAUUUUCGGCGCAUGCCUCCAAA [C8U G44U G63C]
glucosamine-6-phosphate [1]
  self-cleavage kobs at 40 uM GlcN6P: < 1e-05 s⁻¹

## AUAAAAGUGCCAGAACUACAGAAAUGUAGUUGACGAGGAGGAGGUUUAUCGAAUUUUCGACGGAUGCCUCCAAA [C8U G60A]
glucosamine-6-phosphate [1]
  self-cleavage kobs at 40 uM GlcN6P: < 1e-05 s⁻¹
glucosamine-6-phosphate [2]
  self-cleavage kobs at 640 uM GlcN6P: < 1e-05 s⁻¹
glucosamine-6-phosphate [5]
  self-cleavage kobs at 160 uM GlcN6P: < 1e-05 s⁻¹
glucosamine-6-phosphate [3]
  self-cleavage kobs at 2500 uM GlcN6P: < 1e-05 s⁻¹
glucosamine-6-phosphate [4]
  self-cleavage kobs at 10000 uM GlcN6P: < 1e-05 s⁻¹

## AUAAAAGUGCCAGAACUACAGAAAUGUAGUUGACGAGGAGGAGGUUUAUCGAAUUUUCGGCAGAUGCCUCCAAA [C8U G62A]
glucosamine-6-phosphate [1]
  self-cleavage kobs at 40 uM GlcN6P: < 1e-05 s⁻¹
glucosamine-6-phosphate [5]
  self-cleavage kobs at 160 uM GlcN6P: < 1e-05 s⁻¹
glucosamine-6-phosphate [4]
  self-cleavage kobs at 10000 uM GlcN6P: 7.26e-05 ± 1.2e-05 s⁻¹

## AUAAAAGUGCCAGAACUACAGAAAUGUAGAUGACGAGGAGGAGGUUUAUCGAAUUUUCGGCGGAUGCCUCCAAA [C8U U30A]
glucosamine-6-phosphate [1]
  self-cleavage kobs at 40 uM GlcN6P: < 1e-05 s⁻¹
glucosamine-6-phosphate [2]
  self-cleavage kobs at 640 uM GlcN6P: < 1e-05 s⁻¹
glucosamine-6-phosphate [5]
  self-cleavage kobs at 160 uM GlcN6P: < 1e-05 s⁻¹
glucosamine-6-phosphate [3]
  self-cleavage kobs at 2500 uM GlcN6P: < 1e-05 s⁻¹

## AUAAAAGUGCCAGAACUACAGAAAUGUAGUCGACGAGGAGGAGGUUUAUCGUAAUUUCGGAGGAUGCCUCCAAA [C8U U31C A52U U54A C61A]
glucosamine-6-phosphate [1]
  self-cleavage kobs at 40 uM GlcN6P: < 1e-05 s⁻¹

## AUAAAAGCACCCGAUCUACAGAAAUGUAGUUGACGAGGAGGAGGUUUAUCGAAUUUUGGGCGGAUGCCUCCAAA [G9A A12C A15U C58G]
glucosamine-6-phosphate [1]
  self-cleavage kobs at 40 uM GlcN6P: < 1e-05 s⁻¹

## AUAAAAGCACCAGCACUACAGAAAUGUAGUUGACGAGGAGGAGGUUUAUCGAAAUUUCGGCGGAUGGCUCCAAA [G9A A14C U54A C67G]
glucosamine-6-phosphate [1]
  self-cleavage kobs at 40 uM GlcN6P: < 1e-05 s⁻¹

## AUAAAAGCACCAGAACUACAGAAAUGUAGUUGACGCGGAGGAGGUUUAUCGAAUUUUCGGCGGAUGCCUCCAAA [G9A A36C]
glucosamine-6-phosphate [1]
  self-cleavage kobs at 40 uM GlcN6P: < 1e-05 s⁻¹
glucosamine-6-phosphate [5]
  self-cleavage kobs at 160 uM GlcN6P: < 1e-05 s⁻¹

## AUAAAAGCACCAGAACUACAGAAAUGUAGUUGACGAGGAGGAGGUUUAUCGAAUUUUCGGCGGUUGCCUCCAAA [G9A A64U]
glucosamine-6-phosphate [1]
  self-cleavage kobs at 40 uM GlcN6P: < 1e-05 s⁻¹
glucosamine-6-phosphate [2]
  self-cleavage kobs at 640 uM GlcN6P: < 1e-05 s⁻¹

## AUAAAAGCACCAGAAUUACAGAAAUGUAGUUGACGAGGAGGAGGUUUAUCGAAUUUUCGGCGGAUGCCUCCAAA [G9A C16U]
glucosamine-6-phosphate [1]
  self-cleavage kobs at 40 uM GlcN6P: < 1e-05 s⁻¹
glucosamine-6-phosphate [2]
  self-cleavage kobs at 640 uM GlcN6P: < 1e-05 s⁻¹
glucosamine-6-phosphate [5]
  self-cleavage kobs at 160 uM GlcN6P: < 1e-05 s⁻¹
glucosamine-6-phosphate [3]
  self-cleavage kobs at 2500 uM GlcN6P: < 1e-05 s⁻¹
glucosamine-6-phosphate [4]
  self-cleavage kobs at 10000 uM GlcN6P: 3.09e-05 ± 1.5e-05 s⁻¹

## AUAAAAGCACCAGAACUACAGAAAUGUAGUUGACGAGGAGGAGGUUUAUCGAAUUUUCGGCGGAUGCUUCCAAA [G9A C68U]
glucosamine-6-phosphate [1]
  self-cleavage kobs at 40 uM GlcN6P: < 1e-05 s⁻¹
glucosamine-6-phosphate [2]
  self-cleavage kobs at 640 uM GlcN6P: < 1e-05 s⁻¹
glucosamine-6-phosphate [5]
  self-cleavage kobs at 160 uM GlcN6P: < 1e-05 s⁻¹
glucosamine-6-phosphate [3]
  self-cleavage kobs at 2500 uM GlcN6P: < 1e-05 s⁻¹
glucosamine-6-phosphate [4]
  self-cleavage kobs at 10000 uM GlcN6P: < 1e-05 s⁻¹

## AUAAAAGCACCAAAACUACAGAAAUGUAGUUGACGAGGAGGAGGUUUAUCGAAUUUUUGGCGGAUUCCUCAAAA [G9A G13A C58U G66U C71A]
glucosamine-6-phosphate [1]
  self-cleavage kobs at 40 uM GlcN6P: < 1e-05 s⁻¹

## AUAAAAGCACCAGAACUACAGAAAUGUACUUGACGAGGAGGAGGUUUAUCGAAUUUUCGGCGGAUGCCUCCAAA [G9A G29C]
glucosamine-6-phosphate [1]
  self-cleavage kobs at 40 uM GlcN6P: < 1e-05 s⁻¹

## AUAAAAGCACCAGAACUACAGAAAUGUAGUUAACGAGGAGGUGGGUUAACGAAUUUUCGGCGGAUGCCUCCAAA [G9A G32A A42U U45G U49A]
glucosamine-6-phosphate [1]
  self-cleavage kobs at 40 uM GlcN6P: < 1e-05 s⁻¹
glucosamine-6-phosphate [4]
  self-cleavage kobs at 10000 uM GlcN6P: < 1e-05 s⁻¹

## AUAAAAGCACCAGAACUACAGAAAUGUAGUUGACGAAGAGGAGGUUUAUCGAAUUUUCCGCGGAUGCCUCCAAA [G9A G37A G59C]
glucosamine-6-phosphate [1]
  self-cleavage kobs at 40 uM GlcN6P: < 1e-05 s⁻¹
glucosamine-6-phosphate [3]
  self-cleavage kobs at 2500 uM GlcN6P: < 1e-05 s⁻¹
